Laboratory results from PubChem BioAssay (NCI).
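48-hour exposure; five concentrations; linearly interpolated endpoints. GI50 is the concentration that inhibits growth by half.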 A number of entries come with more than one value. The other results are left out here. The source may hold further records. For part of these data: Records of one sample usually come from different ranges of test concentrations, which the source does not state; a value can be the end of its range. For part of these data: The records of an entry are repeated measurements (runs, samples, wells, individuals or studies). Marks in square brackets tell the records apart. The letters are not those of the source and start again with each entry.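 Definition used: TGI = concentration required for complete inhibition of growth.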

Key:
Assay in all cases: DTP human tumour cell line panel, 48 h
NCI-H460 lung = test system: NCI-H460 lung
MDA-N = test system: MDA-N
RPMI-8226 leukemia = test system: RPMI-8226 leukemia
MDA-MB-231 breast = test system: MDA-MB-231 breast
MDA-MB-435 = test system: MDA-MB-435
SK-MEL-28 melanoma = test system: SK-MEL-28 melanoma
UACC-62 melanoma = test system: UACC-62 melanoma
K-562 leukemia = test system: K-562 leukemia
SN12C renal = test system: SN12C renal
CCRF-CEM leukemia = test system: CCRF-CEM leukemia
XF 498 CNS = test system: XF 498 CNS
SF-268 CNS = test system: SF-268 CNS

SMILES: O=[N+]([O-])c1cccc2nc3ccccc3c(NCCO)c12
- TGI (NCI-H460 lung): 2.38 nM and 0.226 nM
- TGI (MDA-N): 5.36 nM and 0.132 nM
- TGI (RPMI-8226 leukemia): 3.37 nM and > 100 nM
- TGI (MDA-MB-231 breast): 7.88 nM and 0.784 nM
- TGI (MDA-MB-435): 3.67 nM and 0.207 nM
- TGI (SK-MEL-28 melanoma): 5.17 nM, 1.74 nM, > 100 nM
- TGI (UACC-62 melanoma): 5.92 nM, 2.06 nM, > 100 nM
- TGI (K-562 leukemia): 3.53 nM and > 100 nM

SMILES: CO[C@@H](C(=O)N1Cc2[nH]nc(NC(=O)c3ccc(N4CCN(C)CC4)cc3)c2C1)c1ccccc1
- GI50 (SN12C renal): 1.73 µM [sample A, mean of 2 tests] and 140 nM [sample B, mean of 2 tests]
- GI50 (CCRF-CEM leukemia): 39.3 µM [sample A, 1 test] and 47.1 nM [sample B, mean of 2 tests]

SMILES: O=CC(NC(=O)N(CCCl)N=O)C(O)C(O)C(O)CO (configuration not stated)
- GI50 (XF 498 CNS): > 1.25 mM [1 test] and 19.8 µM [mean of 2 tests] and 580 µM [mean of 5 tests]
- TGI (SF-268 CNS): 106 µM, > 1.25 mM, > 1.18 mM
